Measured values reported in the supplement of paper PMC3334620.
In all, about 33,000 sequences were measured (“E-score (-0.5 to 0.5)”: median about -0.036, highest 2% from about 0.37 on). Some of the results follow.

target: T1, Yer064c (UniProt P40041); assay: PBM E-score (8-mer binding enrichment) (E-score (-0.5 to 0.5)); higher = stronger / more preferred TF binding; most listed sequences are background and not binding sites; details: protein concentration: 200 nM; construct: GST-full length
T1 sequence: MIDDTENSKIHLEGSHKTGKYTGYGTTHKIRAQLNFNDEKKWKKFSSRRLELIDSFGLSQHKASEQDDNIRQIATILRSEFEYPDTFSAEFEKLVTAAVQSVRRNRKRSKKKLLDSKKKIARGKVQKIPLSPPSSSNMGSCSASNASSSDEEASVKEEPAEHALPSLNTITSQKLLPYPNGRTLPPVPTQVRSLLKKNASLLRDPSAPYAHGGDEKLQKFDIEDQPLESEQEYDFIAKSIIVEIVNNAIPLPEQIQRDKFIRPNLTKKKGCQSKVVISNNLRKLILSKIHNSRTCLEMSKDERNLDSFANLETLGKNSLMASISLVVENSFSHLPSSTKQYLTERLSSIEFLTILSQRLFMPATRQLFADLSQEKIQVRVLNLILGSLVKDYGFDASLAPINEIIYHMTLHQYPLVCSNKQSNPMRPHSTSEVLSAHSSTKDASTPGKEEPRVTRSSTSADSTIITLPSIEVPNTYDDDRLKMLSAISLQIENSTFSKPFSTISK
In short: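 For each ungapped eight-base word taken together with its reverse complement, the Universal PBM Analysis Suite assigned an E-score. Binding data came from GST-tagged yeast transcription factors, applied at about 100-200 nM, on universal all-10-mer Agilent arrays made double-stranded by primer extension. Fluorescent anti-GST marked bound protein, and scans were normalised with masliner.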

Sequence	PBM E-score
ATGGCGTC	-0.328
CGAATTAA	0.00148
AAACGTGC	-0.176
CCATGTCG	-0.08
AGCTTCCG	-0.221
CCGGACCA	-0.183
ACAAGCCC	-0.159
AAGTATAT	-0.0325
ACTTGCGA	0.117
TAACGTTA	0.0502
ATTGATCC	0.0238
AGAACTAG	-0.041
TCGCGCGA	0.108
AGATCCAA	-0.114
CGAATACC	-0.129
CAAGTGCG	-0.0239
GGGTCGAA	0.0364
AGGCCGGG	-0.225
AGATCTCC	-0.057
CGCAGAAG	-0.136
ATACCGGA	0.0903
CTATCGCA	0.0247
GCCTTGTA	-0.116
ATGTGACA	-0.0107
CGTAGGTA	-0.186

Sequence	PBM E-score
CCCAATCA	0.159
GAGCCACA	0.107
CGCCAAAG	-0.0708
ATAGATTG	0.025
AAACTCAC	0.183
ACGACTGC	0.19
CTGTGCTA	-0.0603
CCCTCGCC	-0.184
CATGCCTA	-0.0682
AACCCTGA	0.155
TACAAACA	0.0972
TTGCCAAA	-0.0365
CTTATGCC	0.00776
CACGCGCG	-0.0929
CCGGCACC	-0.131
ATCGATTG	0.0826
AACGCCAG	0.029
GCAAGGGC	-0.265
ACCTGTAG	-0.12
CATCCCGG	-0.195
ATAAGAGG	0.133
ACAAGAAG	0.0447
ATGTGCCG	-0.0965
GTGGCAGA	-0.238
CGAAATTA	0.142

Sequence	PBM E-score
GAACATGA	0.149
CCGCTTAC	0.026
CTACCTGC	-0.0946
CACGACCA	0.0151
ATCCGAGA	-0.00631
AGGTATAG	-0.0533
CTGAACAC	0.0664
AGCCATCC	0.293
GCGTAGGA	-0.0348
CACAGCCA	0.0242
AGCTGGGA	-0.0804
GAGTACCC	0.114
CGCCCAGC	-0.0899
AGGCCGTC	-0.243
ATATTAAG	0.167
GCAACGCC	-0.229
AAATGACC	-0.0187
AACGGCCA	-0.18
CACTGGTC	-0.0661
AAAACTTT	-0.143
ACACGCGT	0.169
GCGTCAAA	-0.15
CGGTTACC	0.0378
AGTTGCTC	-0.166
CGAAACGC	-0.112

Sequence	PBM E-score
GAATGCCA	-0.127
AGTAGCGG	0.106
ATCCTTTC	-0.011
ACAGACAG	0.0442
ACCAGTGG	-0.149
ACTGTCGA	0.0992
GACGTCGA	-0.14
GGCCTAAA	-0.164
CCGATCTA	-0.021
ACAGTGGT	-0.0809
GGCGGGGA	-0.0153
AACAGTGT	0.035
AGCCACAT	0.156
CGCGACAA	0.124
CCCATTTA	0.0983
CGACGATC	0.086
CACAAGCC	0.0086
ACGTCACT	-0.0404
AGCATAGA	-0.214
ATGCCCGA	-0.179
CTCACTTC	-0.0699
GATTTGGC	-0.0986
CCTCTCGC	-0.149
ATCGCAAT	0.0912
TAATATTA	0.207

Sequence	PBM E-score
CGGCGCAA	-0.235
CCACATAA	-0.0479
GCGCGAGA	-0.151
CTTCTTTC	-0.0478
TAGACCTA	-0.0284
CGTCAAGA	-0.229
CTCGGATA	0.0525
GCTTAAGC	-0.103
CGTAAACC	-0.201
ATGGGGTC	-0.192
TGAGGTAA	-0.0357
AAAGGAGG	-0.302
CAATAATC	0.276
CGAGGGCC	-0.17
ATGATCAT	0.333
ACGAACGT	-0.129
CATAGACG	0.132
GATACACC	0.0657
AGGCCGGA	-0.0337
GAAGTCTC	0.145
CGGAAACA	-0.254
CATGTTAA	0.124
GAGGAATA	-0.0447
ATCCCGAG	-0.011
ATTAGGCC	0.00222

Sequence	PBM E-score
AATCATCG	0.439
GGGCGACA	-0.187
GCCGCGAC	-0.00571
TAGAATGA	0.186
ACTTTTTG	0.0874
GTACTACA	0.17
ACCAGTCC	-0.0297
AGCTACTA	-0.207
CACTTGAC	0.146
GACTTATC	0.307
AAGAGCCG	-0.199
GGGCACGA	-0.21
CGGTCCAC	-0.28
GCCCCGGC	-0.208
AGAGACGC	-0.212
CGGTTGAA	0.109
GCTATGCA	-0.22
AGTGGAGG	-0.15
ATCGGAGG	0.026
ACATGCGG	-0.161
ATTCTCAC	0.0881
ACGCCGTG	-0.125
ACTGTAAT	0.0302
GTACAGGA	-0.0544
ATCTACTC	0.123

Sequence	PBM E-score
CTAGAGCA	0.0338
AGATATGG	-0.0104
CCCTGAAA	-0.0824
CCTGTAAA	-0.0234
AAAGCCAA	-0.119
ACTTTTAA	0.171
CCACGAGC	-0.0744
AGTTTCCC	0.0328
CGCGAAGA	0.0335
GATCGGGC	-0.237
ACCGCGCT	-0.135
ACTGCGGA	-0.0234
ACTCAGCT	0.216
ATCTGCAA	0.0565
CCGACTGC	0.156
AGGAACGA	-0.107
ACTCTCGC	0.248
CAGACTTC	-0.103
AGGAGGTA	-0.096
AGCACGCC	-0.239
GCAGACAA	-0.185
ATTTTAGA	0.031
